The list shows a part of the results.
Legend:
Assay in all cases: glycan array binding signal (z-score within array); higher = stronger binding
Conditions in all cases: glycan notation: IUPAC condensed, linker removed
[1] = biological target: Fuc(a1-3)[Gal3S(b1-4)]GlcNAc6S
Summary of the method: (§1)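 Columns mapping to the same glycan were averaged after glycan names were converted to IUPAC-condensed notation. The data come from 3228 arrays in the Consortium for Functional Glycomics database, limited to those with an available protein sequence. Binding is reported as a within-array Z-score averaged across arrays of one protein sequence and across linkers.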

[2] = biological target: Fuc(a1-3)[GalNAc(b1-4)]GlcNAc
Summary of the method: as §1

[3] = biological target: Fuc(a1-3)[GalNAc(b1-4)]GlcNAc6S
Summary of the method: as §1

Fuc(a1-4)GlcNAc = biological target: Fuc(a1-4)GlcNAc
Summary of the method: as §1

Fuc(b1-3)GlcNAc = biological target: Fuc(b1-3)GlcNAc
Summary of the method: as §1

Gal(a1-2)Gal = biological target: Gal(a1-2)Gal
Summary of the method: as §1

Gal(a1-3)Gal = biological target: Gal(a1-3)Gal
Summary of the method: as §1

Gal(a1-3)Gal(b1-3)GlcNAc = biological target: Gal(a1-3)Gal(b1-3)GlcNAc
Summary of the method: as §1

[4] = biological target: Gal(a1-3)Gal(b1-3)GlcNAc(b1-2)Man
Summary of the method: as §1

[5] = biological target: Gal(a1-3)Gal(b1-3)GlcNAc(b1-2)Man(a1-3)[Gal(a1-3)Gal(b1-3)GlcNAc(b1-2)Man(a1-6)]Man(b1-4)GlcNAc(b1-4)GlcNAc
Summary of the method: as §1

[6] = biological target: Gal(a1-3)Gal(b1-3)GlcNAc(b1-3)GalNAc
Summary of the method: as §1

[7] = biological target: Gal(a1-3)Gal(b1-3)GlcNAc(b1-6)GalNAc
Summary of the method: as §1

[8] = biological target: Gal(a1-3)Gal(b1-3)[Fuc(a1-4)]GlcNAc(b1-2)Man(a1-3)[Gal(a1-3)Gal(b1-3)[Fuc(a1-4)]GlcNAc(b1-2)Man(a1-6)]Man(b1-4)GlcNAc(b1-4)GlcNAc
Summary of the method: as §1

Gal(a1-3)Gal(b1-4)Glc = biological target: Gal(a1-3)Gal(b1-4)Glc
Summary of the method: as §1

Gal(a1-3)Gal(b1-4)GlcNAc = biological target: Gal(a1-3)Gal(b1-4)GlcNAc
Summary of the method: as §1

[9] = biological target: Gal(a1-3)Gal(b1-4)GlcNAc(b1-2)Man
Summary of the method: as §1

[10] = biological target: Gal(a1-3)Gal(b1-4)GlcNAc(b1-2)Man(a1-3)[Gal(a1-3)Gal(b1-4)GlcNAc(b1-2)Man(a1-6)]Man(b1-4)GlcNAc(b1-4)GlcNAc
Summary of the method: as §1

[11] = biological target: Gal(a1-3)Gal(b1-4)GlcNAc(b1-3)GalNAc
Summary of the method: as §1

[12] = biological target: Gal(a1-3)Gal(b1-4)GlcNAc(b1-6)GalNAc
Summary of the method: as §1

[13] = biological target: Gal(a1-3)Gal(b1-4)[Fuc(a1-3)]GlcNAc
Summary of the method: as §1

[14] = biological target: Gal(a1-3)Gal(b1-4)[Fuc(a1-3)]GlcNAc(b1-2)Man(a1-3)[Gal(a1-3)Gal(b1-4)[Fuc(a1-3)]GlcNAc(b1-2)Man(a1-6)]Man(b1-4)GlcNAc(b1-4)GlcNAc
Summary of the method: as §1

Gal(a1-3)GalNAc = biological target: Gal(a1-3)GalNAc
Summary of the method: as §1

B1: rEtpA (Escherichia coli) (protein)
chain: MNRIYKLKFDKRRNELVVVSEITTGVGNAKATGSVEGEKSPRRGVRAMALSLLSGMMIMAHPAMSANLPTGGQIVAGSGSIQTPSGNQMNIHQNSQNMVANWNSFDIGKGNTVQFDQPSSSAVALNRVVGGGESQIMGNLKANGQVFLVNPNGVLFGEGASVSTSGFVASTRDIKNDDFMNRRYTFSGGQKAGAAIVNQGELTTNAGGYIVLAADRVSNSGTIRTPGGKTVLAASERITLQLDNGGLMSVQVTGDVVNALVENRGLVSARDGQVYLTALGRGMLMNTVLNVSGVVEASGMHRQDGNIVLDGGDSGVVHLSGTLQADNASGQGGKVVVQGKNILLDKGSNITATGGQGGGEVYVGGGWQGKDSNIRNADKVVMQGGARIDVSATQQGNGGTAVLWSDSYTNFHGQISAKGGETGGNGGRVETSSHGNLQAFGTVSASAKKGKAGNWLLDSADITIVNGSNVSKTETTQSPPHTQFAPTAAGSAVSNTSINNRLNNGTSVTILTHRTRTGTAQGGNITVNAAINKSNGSDVNLTLQAGGNITVNNSITSTEGKLNVNLSGARTSNGSITISNNANITTNGGDITVGTTNTSNRVNISINNTTLNASNGNIQLTGTGTDSGILFAGNNRLTASNIALTGNSTSGNAINLTGTATLNATNNITLTGSSTSGNAINLKGNNTLTASNITLTGESTSGNAINLTDTTGTTTLNATNNITMQGTRVQIKHSNITAGNFALNATVAGSEISNTTLTATNNINLAAKTNSASSGVYLKDARITSTNGSITANGTATANGKATHLDGNVTLNASNGRIKLTGNGHGSASGILFAGNNRLTASNIALTGNSTSGNAINLTGTATLNATNDITLTGSSTSGNAINLTGTATLNATNNITLTGSSTSGNAINLKGNNTLTASNITLTGESTSGNAINLTDTTGTTTLNATNNITMQGTRVQIKHSNITAGNFALNATVAGSEISNTTLTATNNINLAAKTNSASSGVYLKDARITSTNGSITANGTATANGKATHLDGNVTLNASNGRIKLTGNGHGSASGILFAGNNRLTASNIALTGNSTSGNAINLTGTATLNATNDITLTGSSTSGNAINLTGTATLNATNNITLTGSSTSGNAINLKGNNTLTASNITLTGESTSGNAINLTDTTGTTTLNATNNITMQGTRVQIKHSNITAGNFALNATVAGSEISNTTLTATNNINLAAKTNSASSGVYLKDARITSTNGSITANGTATANGKATHLDGNVTLNASNGRIKLTGNGHGSASGILFAGNNRLTASNIALTGNSTSGNAINLTGTATLNATNDITLTGSSTSGNAINLTGTATLNATNNITLTGSSTSGNAINLKGNNTLTASNITLTGESTSGNAINLTDTTGTTTLNATNNITMQGTRVQIKHSNITAGNFALNATVAGSEISNTTLTATNNINLAAKTNSASSGVYLKDARITSTNGSITTNGTATANGKATHLDGNVTLNASNGRIKLTGNGHGSASGILFAGNNRLTASNIALTGNSTSGNAINLTGTATLNATNDITLTGSSTSGNAINLTGTATLNATNNITLTGSSTSGNAINLKGNNTLTASNITLTGESTSGNAINLTDTTGTTTLNATNNITMQGTRVQIKHSNITAGNFALNATVAGSEISNTTLTATNNINLAAKTNSASSGVYLKDARITSTNGSITANGTAPANDNATYLDGNVTLNASNGSIKLTGNGNGSTSGILFAGNNTLTASNITLTGNSEVYWQKLGPEQKLISEEDLNSAVDHHHHHH
glycan array binding signal (z-score) [1]: -0.414 | glycan array binding signal (z-score) [2]: -0.335 | glycan array binding signal (z-score) [3]: -0.388 | glycan array binding signal (z-score) (Fuc(a1-4)GlcNAc): 2.8 | glycan array binding signal (z-score) (Fuc(b1-3)GlcNAc): -0.083 | glycan array binding signal (z-score) (Gal(a1-2)Gal): 0.054 | glycan array binding signal (z-score) (Gal(a1-3)Gal): 2.11 | glycan array binding signal (z-score) (Gal(a1-3)Gal(b1-3)GlcNAc): 1.87 | glycan array binding signal (z-score) [4]: -0.149 | glycan array binding signal (z-score) [5]: 0.182 | glycan array binding signal (z-score) [6]: -0.382 | glycan array binding signal (z-score) [7]: -0.331 | glycan array binding signal (z-score) [8]: 1.23 | glycan array binding signal (z-score) (Gal(a1-3)Gal(b1-4)Glc): -0.179 | glycan array binding signal (z-score) (Gal(a1-3)Gal(b1-4)GlcNAc): 0.097 | glycan array binding signal (z-score) [9]: -0.309 | glycan array binding signal (z-score) [10]: 0.598 | glycan array binding signal (z-score) [11]: -0.358 | glycan array binding signal (z-score) [12]: -0.408 | glycan array binding signal (z-score) [13]: 0.013 | glycan array binding signal (z-score) [14]: -0.416 | glycan array binding signal (z-score) (Gal(a1-3)GalNAc): -0.311

From the supplement of paper PMC8728848
